# PubChem BioAssay AID504832 (National Center for Advancing Translational Sciences (NCATS), 2011)
# Hit rate of the full screen: of about 310,000 compounds, about 18,000 (5.8%) were called active. Inconclusive results, whose numbers are uncertain, are shown with a selection of clear calls. Calls come from the whole dose curve; as a rule, active = well fitted inhibition curve with a large enough effect; inconclusive = small, poorly fitted or top-dose-only effect, or another doubt; inactive = no such curve, though single readings can be large or run the other way. No potency is given beside an inconclusive call; the fits are too rough.
# Test: Primary qHTS for delayed death inhibitors of the malarial parasite plastid, 48 hour incubation
# Details: P. falciparum luciferase growth in erythrocytes; series mostly up to 28.7 µM
# Procedure, shortened: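 Here the parasites carry a stable luciferase gene and grow inside erythrocytes in Albumax-based RPMI medium with compound for one erythrocytic cycle. Activity is scored as loss of luminescent signal.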
# Potency is the fitted concentration of half-maximal effect; tags give direction and shape of the fitted curve.
row,Compound,Potency
1,NC(=S)N/N=C/c1c[nH]c2ccc(OCc3ccccc3)cc12,"inconclusive [inhibitor, partial curve, poor fit]"
2,Cc1cnn(C(=S)NCc2ccc(Cl)cc2)c1,"inconclusive [inhibitor, single point]"
3,CCOC(=O)c1c(NC(=S)NC)sc2c1CCCC2,active: 9.28 µM
4,COC(=O)C1=C(c2ccc3ccccc3c2)C[C@@H]2CC[C@H]1N2C,"inconclusive [inhibitor, single point]"
5,Cc1nc(-c2ccccn2)sc1C(=O)Nc1ccc(Cl)c(Cl)c1,inactive
6,O=C(Cn1cnc2ccccc21)Nc1cc(C(F)(F)F)ccc1N1CCOCC1,active: 4.65 µM
7,CCOC(=O)C1=C(C)Nc2nc(SCC(=O)OC)nn2C1c1cc(F)cc(F)c1 (stereo unspecified),"inconclusive [inhibitor, single point]"
8,Cc1ccc(Nc2c(-c3ccccn3)nc3cccc(C)n23)cc1,"inconclusive [inhibitor, partial curve]"
9,Cc1nc(N/N=C/c2cccc(F)c2)cc(N2CCOCC2)n1,"inconclusive [inhibitor, single point]"
10,COc1cc2c(cc1OC)CN(C(=O)CN1CCN(S(=O)(=O)c3ccccc3Br)CC1)CC2,"inconclusive [inhibitor, partial curve, poor fit]"
11,Cc1ccc(S(=O)(=O)Nc2cccc(C(=O)NCCN3CCOCC3)c2)cc1F,inactive
12,CCN(CC)c1nc(Nc2ccccc2)nc(Oc2ccc(=O)n(C)n2)n1,"inconclusive [inhibitor, single point]"
13,CCC(C)Sc1ccc([C@H]2N[C@@](CC(C)C)(C(=O)OC)[C@H]3C(=O)N(C)C(=O)[C@@H]23)cc1 (stereo partly specified),"inconclusive [inhibitor, single point]"
14,Cc1ccn2c(C(=O)NNC(=O)Nc3ccc(Cl)cc3)c(C)nc2c1,inactive
15,COc1ccc(-n2nc(C(=O)NCC3CCCO3)c3ccccc3c2=O)cc1 (stereo unspecified),"inconclusive [inhibitor, partial curve]"
16,CN(C)CCCN(C(=O)c1ccc2c(c1)CCCC2)c1nc2ccc(F)cc2s1,active: 8.28 µM
17,CCOC(=O)c1[nH]c2c(c1C)C(=O)CC(c1ccc(OC)c(OC)c1)C2 (stereo unspecified),"inconclusive [inhibitor, single point]"
18,COc1cc(C(=O)NCCCOC(C)C)ccc1OC1CCN(C(C)=O)CC1,inactive
19,O=C(NCc1ccccc1)c1cc(-c2ccncc2)nc2ccccc12,"inconclusive [inhibitor, single point]"
20,O=C(OCCN1C(=O)c2cccc3c(N4CCOCC4)ccc(c23)C1=O)c1ccc(Cl)cc1,"inconclusive [inhibitor, partial curve, poor fit]"
21,O=C(N/N=C/c1ccc([N+](=O)[O-])o1)c1cn(-c2ccccc2)nc1-c1ccc(F)cc1,"inconclusive [inhibitor, partial curve, poor fit]"
22,Cc1ccc(C)c(N(CC(=O)Nc2cc(Cl)ccc2Oc2ccccc2)S(C)(=O)=O)c1,"inconclusive [inhibitor, partial curve]"

row,Compound,Potency
1,COC(=O)CC1(C(=O)OC)Oc2ccc(Br)cc2C(=O)N1c1ccc(Br)cc1Cl (stereo unspecified),"inconclusive [inhibitor, single point]"
2,COc1ccc(-c2csc(NC(=O)C3CSC4(C)CCC(=O)N34)n2)cc1OC (stereo unspecified),inactive
3,COc1ccc(Cl)cc1NC(=O)c1c(-c2ccccc2)noc1C,inactive
4,C#CCOCCOCCOCCNc1nc(N2CCN(C(=O)CCCCCCCCCCNC(=O)[C@H]([C@@H](C)CC)n3cc(CCCCCN)nn3)CC2)nc(N2CCN(C(=O)CCCCCCCCCCNC(=O)[C@H](CCCCN)n3cc(CCCC(=O)O)nn3)CC2)n1,active: 11.7 µM
5,COc1ccc(Cl)cc1NC(=O)CS(=O)(=O)c1cccc2nsnc12,"inconclusive [inhibitor, single point]"
6,COC(=O)C1=C(C)N=C2SC(C)C(=O)N2C1c1ccc(C(=O)OC)cc1 (stereo unspecified),"inconclusive [inhibitor, full curve, poor fit]"
7,C/C(=N\NC(=O)c1ccccc1C)c1cccnc1,inactive
8,c1ccc(C[C@H]2CN=C(Nc3ccccc3)N2CCCC2CCCC2)cc1,"inconclusive [inhibitor, partial curve, poor fit]"
9,O=C(NC(NC1CCS(=O)(=O)C1)C(=O)c1ccccc1)c1ccc(Cl)cc1 (stereo unspecified),"inconclusive [inhibitor, single point]"
10,CCN(CC)CCNCC(=O)Nc1ccc(Oc2ccccc2)cc1,"inconclusive [inhibitor, single point]"
11,COc1cc(CN2CC(=O)N(c3ccc(C)c(Cl)c3)C2=S)cc(OC)c1OC,active: 2.08 µM
12,Cc1cnc(C(=O)Nc2nnc(SCc3c(Cl)cccc3Cl)s2)cn1,active: 2.62 µM
13,Cc1cc(C(=O)N2CCCC(Nc3ccc(F)cc3)C2)n(C)n1 (stereo unspecified),"inconclusive [inhibitor, partial curve, poor fit]"
14,COc1ccc(C(=O)O)cc1N1C(=O)Nc2ccccc2N1O,inactive
15,COc1ccc(C(=O)Sc2ccc(C)cc2)cc1OC,inactive
16,CC/C(=C\C1CCCCC1)C(NP(=O)(c1ccccc1)c1ccccc1)c1ccccc1 (stereo unspecified),active: 9.28 µM
17,Cc1cc(C)cc(-n2nnc(C(=O)NCc3ccccc3)c2N)c1,active: 13.1 µM
18,O=C(NCc1ccc2c(c1)OCO2)C1CCC(CNc2c(N3CCCC3)c(=O)c2=O)CC1 (stereo unspecified),"inconclusive [inhibitor, partial curve, poor fit]"
19,CCC(CO)Oc1cc(NCc2ccc(OC)cc2)c2ncn(C(C)C)c2c1 (stereo unspecified),active: 14.7 µM
20,O=C(NCc1ccco1)c1cccc(S(=O)(=O)N2CCOCC2)c1,inactive
21,COc1ccc(CN(C(=O)c2ccc(-c3ccccc3)[nH]2)C(C(=O)NC(C)(C)C)c2ccncc2)cc1 (stereo unspecified),"inconclusive [inhibitor, partial curve, poor fit]"
22,CCOc1ccc(NC(=O)c2cccc3c2C(=O)N(Cc2cccnc2)C3)cc1,"inconclusive [inhibitor, single point]"

row,Compound,Potency
1,Cc1ccccc1NC(=O)CN1C(=O)S/C(=C/c2cccnc2)C1=O,"inconclusive [inhibitor, partial curve, poor fit]"
2,Cc1ccc(Cn2nnc3c(=O)[nH]c(C4CCN(S(=O)(=O)Cc5ccccc5)CC4)nc32)cc1,"inconclusive [inhibitor, partial curve, poor fit]"
3,O=C(CCc1nnc2ccc(NCc3ccc(F)cc3)nn12)NC1CCCC1,inactive
4,Cc1ccc(NC(=S)N(CCCN2CCN(C)CC2)Cc2cccs2)cc1C,"inconclusive [inhibitor, partial curve]"
5,CCn1c(SCC(=O)c2ccccc2)nnc1-c1cccs1,inactive
6,O=C(OCCN1C(=O)CCC1=O)c1ccc(S(=O)(=O)N2CCCCC2)cc1,inactive
7,Cn1c(SCC(=O)Nc2ccc(F)cc2)nc2c(c1=O)SCC2,inactive
8,COc1ccc2nc(N(CCN(C)C)C(=O)/C=C/c3cccs3)sc2c1,"inconclusive [inhibitor, single point]"
9,C#CCOCCOCCOCCNc1nc(N2CCN(C(=O)CCCCCCCCCCNC(=O)Cn3cc(C[C@@H](C)O)nn3)CC2)nc(N2CCN(C(=O)CCCCCCCCCCNC(=O)[C@H](CO)n3cc(CCCSC)nn3)CC2)n1,active: 0.147 µM
10,O=C(N/N=C/c1cc([N+](=O)[O-])ccc1O)C1CC1,"inconclusive [inhibitor, single point]"
11,CCc1cccc(NC(=S)N(CCCN2CCOCC2)C(C)c2cc3cccc(OC)c3o2)c1 (stereo unspecified),"inconclusive [inhibitor, single point]"
12,Cc1ccccc1NC(=O)c1ccccc1O,"inconclusive [inhibitor, single point]"
13,CN(C)c1ccc(N=Nc2ccccc2C(=O)OCC(=O)N(C)c2ccccc2)cc1,active: 13.1 µM
14,CCOc1cc(C(=O)N2CCc3cc(OC)c(OC)cc3C2)ccc1OC(F)F,"inconclusive [inhibitor, partial curve, poor fit]"
15,C=CCNC(=S)N1CCC(Cc2ccccc2)CC1,"inconclusive [inhibitor, single point]"
16,CN(c1ccccc1)S(=O)(=O)c1cc(C(=O)NCCCn2ccnc2)ccc1Cl,"inconclusive [inhibitor, partial curve, poor fit]"
17,O=C(CCCCCN1C(=O)c2cccc3cccc(c23)C1=O)NCc1cccnc1,"inconclusive [inhibitor, single point]"
18,O=C(Nc1ccn(-c2ccccc2)n1)c1ccc(S(=O)(=O)N2CCCCCC2)cc1,active: 1.04 µM
19,CSc1nn2c(C(F)(F)F)cc(C(F)(F)F)nc2c1C(N)=O,"inconclusive [inhibitor, full curve, poor fit]"
20,Cc1ccc(S(=O)(=O)Nc2cc(C(=O)N3CCOCC3)ccc2N2CCCCC2)cc1,"inconclusive [inhibitor, partial curve]"
21,CCOc1cc(/C=N/NC(=S)Nc2ccccc2C(F)(F)F)ccc1OCC(=O)N1CCOCC1,"inconclusive [inhibitor, single point]"
22,Cc1c(C(=O)Nc2ccc(S(=O)(=O)NCC3CCCO3)cc2)cccc1[N+](=O)[O-] (stereo unspecified),inactive
